± gives the standard deviation of the averaged measurements. Restriction of a single-cycle SIVsab GFP reporter by TRIM5α v1-loop variants in CRFK cells. Human variants: read share among cells still uninfected after two challenges over input, higher = gained restriction. Rhesus variants: share among infected cells over input, higher = lost restriction. Reporter dose not given per row. No active / inactive call per row; the paper calls a change when both replicates lie above its controls (mean + 2 SD of stop or wild-type variants, or the top frameshift score). Residues outside the varied loop are taken from Swiss-Prot. The paper reads the human single-substitution scores as noise; they and the rhesus combinations repeat poorly (rank correlation 0.3 to 0.4), indel scores repeat only for the top variants, rhesus substitutions well (0.9).
Each sequence was assayed on SIVsab (simian immunodeficiency virus of sabaeus monkeys), single-cycle GFP reporter, in CRFK cells (assay: enrichment among uninfected cells over input (fold); higher = stronger restriction). Conditions: library: human / rhesus combinations.
Method: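 Pools of CRFK cells expressing variants of the TRIM5α v1 loop were challenged with the single-cycle reporter, sorted by GFP and sequenced; mean of two replicates.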
Sequence “MASGILVNVKEEVTCPICLELLTQPLSLDCGHSFCQACLTANHKKSMLDKGESSCPVCRISYQPENIRPNRHVANIVEKLREVKLSPEGQKVDHCARHGEKLLLFCQEDGKVICWLCERSQEHRGHHTFLTEEVAREYQVKLQAALEMLRQKQQEAEELEADIREEKASWKTQIQYDKTNVLADFEQLRDILDWEESNELQNLEKEEEDILKSLTNSETEMVQQTQSLRELISDLEHRLQGSVMELLQGVDGVIKRTENVTLKKPETFPKNQRRVFRAPDLKGMLEVFRELTDVRRYWVDVTVAPNNISCAVISEDKRQVSSPKPQIIYGARGTRFTFQTFTNFNYCTGILGSQSITSGKHYWEVDVSKKTAWILGVCAGFQPDAMCNIEKNENYQPKYGYWVIGLEEGVKCSAFQDSSFHTPSVPFIVPLSVIICPDRVGVFLDYEACTVSFFNITNHGFLIYKFSHCSFSQPVFPYLNPRKCGVPMTLCSPSS [human TRIM5α, 330-340 = GARGTRFTFQTFT]” has an enrichment of 0.171 ± 0.011. Sequence “MASGILVNVKEEVTCPICLELLTQPLSLDCGHSFCQACLTANHKKSMLDKGESSCPVCRISYQPENIRPNRHVANIVEKLREVKLSPEGQKVDHCARHGEKLLLFCQEDGKVICWLCERSQEHRGHHTFLTEEVAREYQVKLQAALEMLRQKQQEAEELEADIREEKASWKTQIQYDKTNVLADFEQLRDILDWEESNELQNLEKEEEDILKSLTNSETEMVQQTQSLRELISDLEHRLQGSVMELLQGVDGVIKRTENVTLKKPETFPKNQRRVFRAPDLKGMLEVFRELTDVRRYWVDVTVAPNNISCAVISEDKRQVSSPKPQIIYGAPGTRYTFQTFVNFNYCTGILGSQSITSGKHYWEVDVSKKTAWILGVCAGFQPDAMCNIEKNENYQPKYGYWVIGLEEGVKCSAFQDSSFHTPSVPFIVPLSVIICPDRVGVFLDYEACTVSFFNITNHGFLIYKFSHCSFSQPVFPYLNPRKCGVPMTLCSPSS [human TRIM5α, 330-340 = GAPGTRYTFQTFV]” has an enrichment of 0.0795 ± 0.06. For “MASGILVNVKEEVTCPICLELLTQPLSLDCGHSFCQACLTANHKKSMLDKGESSCPVCRISYQPENIRPNRHVANIVEKLREVKLSPEGQKVDHCARHGEKLLLFCQEDGKVICWLCERSQEHRGHHTFLTEEVAREYQVKLQAALEMLRQKQQEAEELEADIREEKASWKTQIQYDKTNVLADFEQLRDILDWEESNELQNLEKEEEDILKSLTNSETEMVQQTQSLRELISDLEHRLQGSVMELLQGVDGVIKRTENVTLKKPETFPKNQRRVFRAPDLKGMLEVFRELTDVRRYWVDVTVAPNNISCAVISEDKRQVSSPKPQIIYQAPGTLFTFPSFTNFNYCTGILGSQSITSGKHYWEVDVSKKTAWILGVCAGFQPDAMCNIEKNENYQPKYGYWVIGLEEGVKCSAFQDSSFHTPSVPFIVPLSVIICPDRVGVFLDYEACTVSFFNITNHGFLIYKFSHCSFSQPVFPYLNPRKCGVPMTLCSPSS [human TRIM5α, 330-340 = QAPGTLFTFPSFT]”, the enrichment was 37 ± 8. Sequence “MASGILVNVKEEVTCPICLELLTQPLSLDCGHSFCQACLTANHKKSMLDKGESSCPVCRISYQPENIRPNRHVANIVEKLREVKLSPEGQKVDHCARHGEKLLLFCQEDGKVICWLCERSQEHRGHHTFLTEEVAREYQVKLQAALEMLRQKQQEAEELEADIREEKASWKTQIQYDKTNVLADFEQLRDILDWEESNELQNLEKEEEDILKSLTNSETEMVQQTQSLRELISDLEHRLQGSVMELLQGVDGVIKRTENVTLKKPETFPKNQRRVFRAPDLKGMLEVFRELTDVRRYWVDVTVAPNNISCAVISEDKRQVSSPKPQIIYGAPGTLYTFQSLTNFNYCTGILGSQSITSGKHYWEVDVSKKTAWILGVCAGFQPDAMCNIEKNENYQPKYGYWVIGLEEGVKCSAFQDSSFHTPSVPFIVPLSVIICPDRVGVFLDYEACTVSFFNITNHGFLIYKFSHCSFSQPVFPYLNPRKCGVPMTLCSPSS [human TRIM5α, 330-340 = GAPGTLYTFQSLT]” has an enrichment of 0.206 ± 0.16.

Same assay, conditions: library: insertions and deletions
For “MASGILVNVKEEVTCPICLELLTQPLSLDCGHSFCQACLTANHKKSMLDKGESSCPVCRISYQPENIRPNRHVANIVEKLREVKLSPEGQKVDHCARHGEKLLLFCQEDGKVICWLCERSQEHRGHHTFLTEEVAREYQVKLQAALEMLRQKQQEAEELEADIREEKASWKTQIQYDKTNVLADFEQLRDILDWEESNELQNLEKEEEDILKSLTNSETEMVQQTQSLRELISDLEHRLQGSVMELLQGVDGVIKRTENVTLKKPETFPKNQRRVFRAPDLKGMLEVFRELTDVRRYWVDVTVAPNNISCAVISEDKRQVSSPKPQIIYGARGTNYCTGILGSQSITSGKHYWEVDVSKKTAWILGVCAGFQPDAMCNIEKNENYQPKYGYWVIGLEEGVKCSAFQDSSFHTPSVPFIVPLSVIICPDRVGVFLDYEACTVSFFNITNHGFLIYKFSHCSFSQPVFPYLNPRKCGVPMTLCSPSS [human TRIM5α, 8-codon deletion at 335]”, the enrichment was 0.691 ± 0.23. Work on “MASGILVNVKEEVTCPICLELLTQPLSLDCGHSFCQACLTANHKKSMLDKGESSCPVCRISYQPENIRPNRHVANIVEKLREVKLSPEGQKVDHCARHGEKLLLFCQEDGKVICWLCERSQEHRGHHTFLTEEVAREYQVKLQAALEMLRQKQQEAEELEADIREEKASWKTQIQYDKTNVLADFEQLRDILDWEESNELQNLEKEEEDILKSLTNSETEMVQQTQSLRELISDLEHRLQGSVMELLQGVDGVIKRTENVTLKKPETFPKNQRRVFRAPDLKGMLEVFRELTDVRRYWVDVTVAPNNISCAVISEDKRQVSSPKPQIIYGARGTRYQTFVNTFVNFNYCTGILGSQSITSGKHYWEVDVSKKTAWILGVCAGFQPDAMCNIEKNENYQPKYGYWVIGLEEGVKCSAFQDSSFHTPSVPFIVPLSVIICPDRVGVFLDYEACTVSFFNITNHGFLIYKFSHCSFSQPVFPYLNPRKCGVPMTLCSPSS [human TRIM5α, 4-codon duplication at 338]” yielded an enrichment of 0.0834 ± 0.017. For “MASGILVNVKEEVTCPICLELLTQPLSLDCGHSFCQACLTANHKKSMLDKGESSCPVCRISYQPENIRPNRHVANIVEKLREVKLSPEGQKVDHCARHGEKLLLFCQEDGKVICWLCERSQEHRGHHTFLTEEVAREYQVKLQAALEMLRQKQQEAEELEADIREEKASWKTQIQYDKTNVLADFEQLRDILDWEESNELQNLEKEEEDILKSLTNSETEMVQQTQSLRELISDLEHRLQGSVMELLQGVDGVIKRTENVTLKKPETFPKNQRRVFRAPDLKGMLEVFRELTDVRRYWVDVTVAPNNISCAVISEDKRQVSSPKPQIIYGARGTRYQTFVNFNYQSITSGKHYWEVDVSKKTAWILGVCAGFQPDAMCNIEKNENYQPKYGYWVIGLEEGVKCSAFQDSSFHTPSVPFIVPLSVIICPDRVGVFLDYEACTVSFFNITNHGFLIYKFSHCSFSQPVFPYLNPRKCGVPMTLCSPSS [human TRIM5α, 7-codon deletion at 345]”, the enrichment was 1.77 ± 0.2. “MASGILVNVKEEVTCPICLELLTQPLSLDCGHSFCQACLTANHKKSMLDKGESSCPVCRISYQPENIRPNRHVANIVEKLREVKLSPEGQKVDHCARHGEKLLLFCQEDGKVICWLCERSQEHRGHHTFLTEEVAREYQVKLQAALEMLRQKQQEAEELEADIREEKASWKTQIQYDKTNVLADFEQLRDILDWEESNELQNLEKEEEDILKSLTNSETEMVQQTQSLRELISDLEHRLQGSVMELLQGVDGVIKRTENVTLKKPETFPKNQRRVFRAPDLKGMLEVFRELTDVRRYWVDVTVAPNNISCAVISEDKRQVSSPKPQIIYGARGTRYQTFVNFNQSITSGKHYWEVDVSKKTAWILGVCAGFQPDAMCNIEKNENYQPKYGYWVIGLEEGVKCSAFQDSSFHTPSVPFIVPLSVIICPDRVGVFLDYEACTVSFFNITNHGFLIYKFSHCSFSQPVFPYLNPRKCGVPMTLCSPSS [human TRIM5α, 8-codon deletion at 344]” gave an enrichment of 1.84 ± 0.76.
